Measured values: PMC8850586
These are yes or no findings as the source states them, for the method shown. For part of these data: In cells and extracts the contact can be indirect. Some entries that bind do so weakly or less than the wild type. For part of these data: Sequences can lack the tags named with a protein.

Protein sequences, listed by entry. Tags and fused reporters are not part of them. Lines headed by an entry give the natural chain unless they say otherwise; changes in a name come on top.
UniProt P10644: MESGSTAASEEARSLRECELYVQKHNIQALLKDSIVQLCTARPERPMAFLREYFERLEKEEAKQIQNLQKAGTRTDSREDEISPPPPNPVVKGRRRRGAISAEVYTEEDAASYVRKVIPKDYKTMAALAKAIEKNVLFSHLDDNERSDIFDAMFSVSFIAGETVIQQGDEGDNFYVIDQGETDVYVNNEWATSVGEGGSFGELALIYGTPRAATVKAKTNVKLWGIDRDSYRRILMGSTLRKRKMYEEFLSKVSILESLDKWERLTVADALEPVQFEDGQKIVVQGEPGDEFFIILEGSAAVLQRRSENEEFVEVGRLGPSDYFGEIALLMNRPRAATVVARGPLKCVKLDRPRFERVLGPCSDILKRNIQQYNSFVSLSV
UniProt P49841: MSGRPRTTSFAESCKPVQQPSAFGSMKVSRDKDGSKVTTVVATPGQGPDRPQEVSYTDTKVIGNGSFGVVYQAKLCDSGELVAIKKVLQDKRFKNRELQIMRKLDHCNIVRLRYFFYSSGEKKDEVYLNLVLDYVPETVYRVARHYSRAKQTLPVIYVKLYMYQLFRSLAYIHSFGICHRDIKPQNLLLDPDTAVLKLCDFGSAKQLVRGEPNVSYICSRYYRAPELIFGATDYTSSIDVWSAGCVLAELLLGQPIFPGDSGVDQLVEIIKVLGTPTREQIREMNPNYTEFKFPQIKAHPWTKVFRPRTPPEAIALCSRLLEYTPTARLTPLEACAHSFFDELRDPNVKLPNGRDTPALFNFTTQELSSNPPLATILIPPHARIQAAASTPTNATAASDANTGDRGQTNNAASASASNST

Columns and labels:
[1] = target: T1, HA-tagged HK2 (rat hexokinase 2) stably expressed in HEK293 cells (rat) (UniProt P27881); assay: condition: only glucose replaced with 10 mM 2-DG for 2 h; co-IP; as a3, but glucose replaced with 10 mM 2-DG for 2 h
T1 sequence: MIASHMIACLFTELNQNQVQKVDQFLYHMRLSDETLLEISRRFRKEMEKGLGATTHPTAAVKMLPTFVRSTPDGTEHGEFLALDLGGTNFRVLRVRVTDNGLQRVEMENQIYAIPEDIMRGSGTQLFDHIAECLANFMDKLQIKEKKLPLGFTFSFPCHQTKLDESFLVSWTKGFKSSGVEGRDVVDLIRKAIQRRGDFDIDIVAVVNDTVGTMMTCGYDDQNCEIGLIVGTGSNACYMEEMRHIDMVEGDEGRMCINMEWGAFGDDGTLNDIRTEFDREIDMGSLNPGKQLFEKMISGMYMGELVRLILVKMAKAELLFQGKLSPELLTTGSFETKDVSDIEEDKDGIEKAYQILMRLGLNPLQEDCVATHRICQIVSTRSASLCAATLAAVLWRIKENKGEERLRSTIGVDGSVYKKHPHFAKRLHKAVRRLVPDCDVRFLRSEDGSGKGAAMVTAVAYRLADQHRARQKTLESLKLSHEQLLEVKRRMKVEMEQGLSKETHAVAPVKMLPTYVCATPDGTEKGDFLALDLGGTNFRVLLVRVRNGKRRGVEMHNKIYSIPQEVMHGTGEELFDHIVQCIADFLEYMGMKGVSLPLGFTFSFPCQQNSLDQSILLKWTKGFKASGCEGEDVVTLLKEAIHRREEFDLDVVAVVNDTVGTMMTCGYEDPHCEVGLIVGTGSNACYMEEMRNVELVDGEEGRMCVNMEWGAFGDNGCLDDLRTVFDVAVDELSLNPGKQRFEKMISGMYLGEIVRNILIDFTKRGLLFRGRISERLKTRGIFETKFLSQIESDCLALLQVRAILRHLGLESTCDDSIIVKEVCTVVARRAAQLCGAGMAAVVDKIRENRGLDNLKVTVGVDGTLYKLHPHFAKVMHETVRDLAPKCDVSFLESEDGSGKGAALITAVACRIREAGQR

[2] = target: T1, HA-tagged HK2 (rat hexokinase 2) stably expressed in HEK293 cells (rat); assay: co-IP; HEK293-HK2-HA cells transfected with myc-GSK3β, 2 h in glucose-free medium with 10 mM glucose; HK2 immunoprecipitated (anti-HA), immunoblot with anti-myc-HRP and anti-PRKAR1a
[3] = target: T2, full length HK2, bait of the yeast two-hybrid screen (UniProt P27881); assay: two-hybrid; unbiased yeast two-hybrid screen with full length HK2 as bait
T2 sequence: T1 sequence

[4] = target: T3, wild-type HK2 (catalytically active) expressed in MI5-4 CHO cells (rat) (UniProt P27881); assay: co-IP; MI5-4 CHO cells expressing HK2, without 2-DG (Supplementary Fig. 7c; its methods were not shown)
T3 sequence: T1 sequence

[5] = target: T1, HA-tagged HK2 (rat hexokinase 2) stably expressed in HEK293 cells (rat); assay: co-IP; as a3, but glucose replaced with 10 mM 2-DG for 2 h
His-HK2 = target: T4, His-HK2 (UniProt P52789); assay: ELISA; His-HK2 (50 nM) held on nickel-coated 8-well strips, then Myc-PRKAR1α (32 nM), PKAc (20 nM) and GST-GSK3β (32 nM) in turn, 1 h each at room temperature; bound proteins detected with antibodies; controls without His-HK2 or Myc-PRKAR1α; both purified
T4 sequence: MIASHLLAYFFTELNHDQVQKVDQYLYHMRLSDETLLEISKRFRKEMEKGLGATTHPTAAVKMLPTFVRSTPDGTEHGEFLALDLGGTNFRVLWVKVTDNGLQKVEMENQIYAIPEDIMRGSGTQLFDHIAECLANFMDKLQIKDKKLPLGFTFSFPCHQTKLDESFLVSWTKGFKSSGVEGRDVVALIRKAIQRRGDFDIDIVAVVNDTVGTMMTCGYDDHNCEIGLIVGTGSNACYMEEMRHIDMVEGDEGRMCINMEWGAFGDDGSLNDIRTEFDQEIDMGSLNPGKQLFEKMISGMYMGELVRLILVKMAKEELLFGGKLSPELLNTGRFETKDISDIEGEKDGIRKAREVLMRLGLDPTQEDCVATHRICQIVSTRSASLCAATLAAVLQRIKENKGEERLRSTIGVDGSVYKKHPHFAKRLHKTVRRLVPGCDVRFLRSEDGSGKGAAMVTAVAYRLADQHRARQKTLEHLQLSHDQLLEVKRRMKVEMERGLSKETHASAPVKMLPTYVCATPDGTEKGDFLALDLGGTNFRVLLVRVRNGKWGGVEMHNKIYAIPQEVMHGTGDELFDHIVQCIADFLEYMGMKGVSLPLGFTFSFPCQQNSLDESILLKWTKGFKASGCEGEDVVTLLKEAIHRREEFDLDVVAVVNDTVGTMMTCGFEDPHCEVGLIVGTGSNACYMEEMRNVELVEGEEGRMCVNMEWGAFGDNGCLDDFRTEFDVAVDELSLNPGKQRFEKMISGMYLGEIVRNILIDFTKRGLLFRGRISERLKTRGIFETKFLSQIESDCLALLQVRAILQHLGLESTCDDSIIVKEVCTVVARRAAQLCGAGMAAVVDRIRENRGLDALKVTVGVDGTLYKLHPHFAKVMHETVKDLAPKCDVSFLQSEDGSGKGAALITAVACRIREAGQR

[6] = target: T5, endogenous HK2 of HEK293 cells (human (endogenous in HEK293)) (UniProt P52789); assay: condition: only glucose replaced with 10 mM 2-DG for 2 h; co-IP; as a5, but glucose replaced with 10 mM 2-DG
T5 sequence: T4 sequence

[7] = target: T5, endogenous HK2 of HEK293 cells (human (endogenous in HEK293)); assay: co-IP; endogenous HK2 immunoprecipitated with anti-HK2 from HEK293 cells (Fig. 2f) or 4T1 cells (Supplementary Fig. 15c) kept 2 h with 10 mM glucose; immunoblot with anti-GSK3α/β
Myc-HK2 = target: T6, Myc-HK2 (UniProt P52789); assay: ELISA; His-PRKAR1a (50 nM) held on nickel-coated plates, then Myc-HK2 (32 nM, 2 h) or buffer, then GST-GSK3β (0-64 nM, 2 h); detected with anti-GST-HRP; G6P (0-1000 µM) added for the last 30 min in the inhibition panel; both purified
T6 sequence: T4 sequence

With “endogenous PRKAR1a of HEK293 cells (from UniProt P10644 1-381)” the binding [1] was “no binding” and the binding [2] was “binds”.
With “PRKAR1a fragment containing the first 129 amino acids (dimerization/docking domain) (from UniProt P10644 1-129) (domain or fragment)” the binding [3] was “binds”.
“GSK3β in MI5-4 CHO cells (from UniProt P49841 1-420) (enzyme)” was tested, and the binding [4] was “binds”.
“myc-GSK3β (glycogen synthase kinase 3 beta), wild type (from UniProt P49841 1-420) (enzyme)” was tested, and the binding [5] was “binds weakly”, the binding [1] was “no binding” and the binding [2] was “binds”.
Myc-PRKAR1α (from UniProt P10644 1-381) was tested, and the binding (His-HK2) was “binds”.
With “endogenous GSK3β of HEK293 cells (from UniProt P49841 1-420) (enzyme)” the binding [6] was “no binding” and the binding [7] was “binds”.
In the case of “GST-GSK3β (from UniProt P49841 1-420) (enzyme)”, the binding (Myc-HK2) is reported as “binds” and the binding (His-HK2) is reported as “binds”.
